The campaign covered roughly 220,000 compounds. About 5,700 (2.6%) were called active. This list was built around the results that the source calls inconclusive (neither active nor inactive); the mix of calls is not that of the screen. The call rests on the fitted dose curve; in most records, active means well fitted inhibition curve with a large enough effect; inconclusive means small, poorly fitted or top-dose-only effect; inactive means no such curve, though single readings can be large or run the other way. Potencies of inconclusive entries are doubtful fits and often do not repeat.
These molecules were tested against Lysine-specific demethylase 5B (Homo sapiens) (UniProt Q9UGL1) (assay: Primary screen for KDM5B Histone Demethylases FDH-coupled qHTS). Details: FDH-coupled NADH fluorescence (FDH is formaldehyde dehydrogenase); series mostly up to 57.7 µM.
Summary of the method: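 qHTS format, multiple compound concentrations. Buffer 50 mM HEPES pH 7.5/0.01% Tween-20; 200 nM KDM5BΔAP final; 10 min compound preincubation; substrate-mix levels 12.5 µM peptide, 25 µM α-KG, 0.25 mM NAD⁺; 30 min RT; ΔRFU.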
Further: nearly all actives have a fitted effect of over 70% in size.
Potency means the concentration at half of the fitted maximal effect; tags describe the fitted curve by direction and shape.

Sequence of UniProt Q9UGL1 (Q9UGL1 whole entry, looked up): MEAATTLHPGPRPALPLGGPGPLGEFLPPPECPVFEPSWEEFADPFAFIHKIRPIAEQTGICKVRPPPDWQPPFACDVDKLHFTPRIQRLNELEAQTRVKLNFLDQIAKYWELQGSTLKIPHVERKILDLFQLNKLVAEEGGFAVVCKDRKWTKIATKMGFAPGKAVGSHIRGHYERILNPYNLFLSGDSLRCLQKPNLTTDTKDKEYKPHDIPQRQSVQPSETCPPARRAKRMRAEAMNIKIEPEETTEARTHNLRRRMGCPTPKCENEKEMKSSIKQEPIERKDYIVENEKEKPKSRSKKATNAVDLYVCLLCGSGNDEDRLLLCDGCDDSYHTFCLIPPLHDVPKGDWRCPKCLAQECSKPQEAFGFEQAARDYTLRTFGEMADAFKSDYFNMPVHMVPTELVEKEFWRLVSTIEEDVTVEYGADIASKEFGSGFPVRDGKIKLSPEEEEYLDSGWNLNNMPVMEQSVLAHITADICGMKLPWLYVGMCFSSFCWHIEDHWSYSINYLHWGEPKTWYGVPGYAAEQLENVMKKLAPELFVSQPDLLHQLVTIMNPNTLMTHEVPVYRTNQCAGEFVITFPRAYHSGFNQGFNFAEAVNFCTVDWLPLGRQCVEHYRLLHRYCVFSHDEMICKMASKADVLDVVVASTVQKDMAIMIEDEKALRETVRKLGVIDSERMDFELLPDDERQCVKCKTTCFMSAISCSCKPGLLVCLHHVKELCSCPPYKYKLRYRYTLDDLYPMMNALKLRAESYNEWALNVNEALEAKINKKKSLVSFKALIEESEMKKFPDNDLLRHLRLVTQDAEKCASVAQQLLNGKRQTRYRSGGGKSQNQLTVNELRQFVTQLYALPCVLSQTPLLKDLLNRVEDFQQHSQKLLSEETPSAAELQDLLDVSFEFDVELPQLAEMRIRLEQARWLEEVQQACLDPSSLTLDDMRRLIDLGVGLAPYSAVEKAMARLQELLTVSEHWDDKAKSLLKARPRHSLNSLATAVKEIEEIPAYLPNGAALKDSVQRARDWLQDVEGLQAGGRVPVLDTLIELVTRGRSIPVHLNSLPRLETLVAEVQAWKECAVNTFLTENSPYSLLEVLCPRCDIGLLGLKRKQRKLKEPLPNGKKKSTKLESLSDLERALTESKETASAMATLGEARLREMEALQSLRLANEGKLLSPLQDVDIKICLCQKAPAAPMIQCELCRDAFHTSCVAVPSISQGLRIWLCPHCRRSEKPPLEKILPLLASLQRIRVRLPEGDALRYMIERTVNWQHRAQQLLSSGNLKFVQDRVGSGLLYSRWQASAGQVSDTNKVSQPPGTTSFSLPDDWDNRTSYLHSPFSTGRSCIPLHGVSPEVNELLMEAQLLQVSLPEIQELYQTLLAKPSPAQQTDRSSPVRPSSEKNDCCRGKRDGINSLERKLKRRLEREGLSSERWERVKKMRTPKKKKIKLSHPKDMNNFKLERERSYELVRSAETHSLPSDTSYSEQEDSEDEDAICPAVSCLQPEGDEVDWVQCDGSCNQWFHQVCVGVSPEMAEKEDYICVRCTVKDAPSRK

SMILES	Potency
O=C(CSc1nc2nccnc2c(=O)n1CCc1c[nH]c2ccccc12)Nc1ccc(F)cc1	inconclusive: 1.12 µM [inhibitor, partial curve, poor fit]
COc1ccc2c(COC(=O)c3ccccc3F)cc(=O)oc2c1	inconclusive: 25.1 µM [inhibitor, single point]
COc1ccc(CN2CCNc3cnc(OCc4cccnc4)cc3C2)cn1	inconclusive: 35.5 µM [inhibitor, single point]
C=CCNC(=O)CSc1ccc2c(c1)OCCCO2	inactive
COC(=O)COc1ccc2c3c(c(=O)oc2c1)CCC3	inconclusive: 28.2 µM [inhibitor, single point]
Cn1c(=O)[nH]c(=O)c2c1nc(N1CCN(CC(N)=O)CC1)n2Cc1ccccc1	inactive
COc1ccc(NC(=O)N2C[C@@H]3C[C@H](C2)c2ccc(NS(=O)(=O)c4ccc(NC(C)=O)cc4)c(=O)n2C3)cc1	inconclusive: 17.8 µM [inhibitor, single point]
COc1ccc2c(c1)c1c(c(=O)n(-c3ccccc3)c(=O)n1CC(=O)NCc1ccc(C)cc1)n2C	inconclusive: 3.98 µM [inhibitor, partial curve, poor fit]
O=C(c1cnc(C23CC4CC(CC(C4)C2)C3)[nH]c1=O)N1C[C@H]2CNC[C@H]2C1	inconclusive: 28.2 µM [inhibitor, partial curve]
O=C(c1c[nH]c2ccccc12)N1CCC2(CC1)CNS(=O)(=O)c1cccnc1O2	inconclusive: 56.2 µM [inhibitor, partial curve]
C[S+](=O)([O-])CCn1ncc2cc(OCc3cccc(-c4cccc(CO)c4)c3)ccc21	inconclusive: 63.1 µM [inhibitor, single point]
O=C(CC1C(=O)NCCN1C(=O)CN1CCN(c2ncccn2)CC1)Nc1ccc(F)cc1 (stereo unspecified)	inactive
COc1ccc(C)cc1NC(=O)Nc1ccccc1OCc1cc(=O)n2ccccc2n1	inconclusive: 4.47 µM [inhibitor, full curve, poor fit]
O[C@@H]1C[C@@H](c2nc(-c3ccc4c(c3)OCO4)no2)N(CCCc2ccccc2)C1	inconclusive: 56.2 µM [inhibitor, partial curve, poor fit]
COCCOC(=O)/C(=C\c1cc(C(C)(C)C)c(O)c(C(C)(C)C)c1)C(C)=O	inconclusive: 25.1 µM [inhibitor, single point]
COc1ccc(NC(=O)N[C@H]2[C@H](O)[C@@H](Sc3ccccc3)[C@@H]3OC[C@H]2O3)cc1	inconclusive: 31.6 µM [inhibitor, partial curve, poor fit]
Cc1ccc(CCN2CCCCC23Cc2ccccc2CN([S+](C)(=O)[O-])C3)cc1 (stereo unspecified)	inconclusive: 100 µM [inhibitor, partial curve, poor fit]
CCCCNC(=O)c1cnc2sc(N3CCCCCC3)nn2c1=O	inconclusive: 35.5 µM [inhibitor, partial curve, poor fit]
N#Cc1cccc(-c2ccnc(N[C@H]3CO[C@H]4[C@@H]3OC[C@H]4OC(=O)NC3CCCCC3)n2)c1	inconclusive: 28.2 µM [inhibitor, single point]
NC1CCc2nn(CC(=O)N(Cc3ccccc3)Cc3ccco3)c(=O)n2CC1 (stereo unspecified)	inactive
COc1ccc2nc(NC(=O)c3cccs3)sc2c1	inconclusive: 25.1 µM [inhibitor, partial curve, poor fit]

SMILES	Potency
COc1ccc(NC2=CC(c3cccc(OC)c3)N(c3ccc(OC)cc3)C2=O)cc1 (stereo unspecified)	inconclusive: 11.2 µM [inhibitor, partial curve, poor fit]
FC(F)(F)c1ccc(CN2CCCC3(CC(c4cccc(C(F)(F)F)c4)=NO3)C2)cc1 (stereo unspecified)	inconclusive: 2.82 µM [inhibitor, partial curve, poor fit]
OCC1CN(C2CCC2)CC12CCN(Cc1ccsc1)CC2 (stereo unspecified)	inconclusive: 31.6 µM [inhibitor, partial curve, poor fit]
O=[N+]([O-])c1ccc(N2CCCCC2)cc1	inconclusive: 25.1 µM [inhibitor, partial curve, poor fit]
COc1cccc(NC(=O)CSC2=Nc3ccccc3C3=NC(CC(=O)NCc4ccc5c(c4)OCO5)C(=O)N23)c1 (stereo unspecified)	inconclusive: 28.2 µM [inhibitor, partial curve, poor fit]
O=C1CC(c2noc(-c3ccc(F)cc3)n2)CN1c1ccc(Cl)cc1 (stereo unspecified)	inconclusive: 17.8 µM [inhibitor, partial curve, poor fit]
CCS(=O)(=O)c1ccccc1C(=O)Nc1ccc(-c2nc3ccccc3s2)cc1	inconclusive: 44.7 µM [inhibitor, single point]
COc1ccc(CC(=O)Nc2cc(-c3cn4cccnc4n3)ccc2OC)cc1	inconclusive: 28.2 µM [inhibitor, partial curve, poor fit]
Cc1ccc(C)c(NCc2ccccn2)c1	inconclusive: 10 µM [inhibitor, partial curve, poor fit]
CCCN1CCN(CCNC(=O)c2cn3ccnc(-c4ccc(OC)cc4)c3n2)CC1	active: 20 µM
COc1ccc(N=C/C(C(=O)C(F)(F)F)=C(\O)c2cccs2)cc1	inconclusive: 39.8 µM [inhibitor, single point]
Cc1c(C(=O)N(Cc2ccco2)Cc2ccccc2Cl)oc2ccc(F)cc12	inconclusive: 15.8 µM [inhibitor, partial curve, poor fit]
O=C(CN1CCN(c2ccc(O)cc2)CC1)Nc1ccnn1Cc1ccccc1Cl	inconclusive: 14.1 µM [inhibitor, partial curve, poor fit]
Cc1ccc(NC(=O)c2ccc(CNS(=O)(=O)c3ccc4c(c3)C(C)(C)C(=O)N4C)cc2)cc1F	inconclusive: 39.8 µM [inhibitor, single point]
NC(=O)c1ccc(OC2CCN(Cc3ccccn3)C2)nc1 (stereo unspecified)	inconclusive: 15.8 µM [inhibitor, single point]
O=C(NC1CCN(c2cc(-c3cccs3)[nH]n2)CC1)c1ccccc1F	inactive
COc1ccc2c(c1)CCN=C2C[C@H]1CN(S(C)(=O)=O)CC[C@H]1CC(=O)O	inconclusive: 31.6 µM [inhibitor, single point]
Cc1ccc(NC(=O)COC(=O)c2ccc3ccccc3n2)cc1C	inactive
Cc1c2c(=O)n(-c3ccc(Cl)cc3)[nH]c2cc(=O)n1Cc1ccc(F)cc1	inconclusive: 39.8 µM [inhibitor, single point]
Cc1cc(C)n(C2CCN(c3nccc(-c4ccccn4)n3)C2)n1 (stereo unspecified)	inactive
COCCNc1ncccc1-c1noc([C@@H]2CCCN2Cc2cccc(C#N)c2)n1	inconclusive: 39.8 µM [inhibitor, partial curve, poor fit]

SMILES	Potency
CCOc1nc(-c2ccccc2)c2cc(Br)ccc2n1	inconclusive: 35.5 µM [inhibitor, single point]
CC(C)(C)c1ccc(-c2nnc(SCc3nc4ccccc4o3)o2)cc1	inactive
Cc1cc2c(cc1C)NC(CC(=O)Nc1ccccc1C(F)(F)F)C(=O)N2 (stereo unspecified)	inconclusive: 25.1 µM [inhibitor, partial curve, poor fit]
O=C(Nc1ccc(Cl)nc1)c1cccn2cncc12	inconclusive: 39.8 µM [inhibitor, partial curve, poor fit]
CS(=O)(=O)NCC1CCCN(C(=O)c2cnc3ccccc3n2)C1 (stereo unspecified)	inactive
Cn1cc(C(=O)NCCNC(=O)Cc2ccccc2)c2ccccc21	inactive
CCCn1nc(C(=O)N2CCCCCC2)c2ccccc2c1=O	inactive
COCCN(C)C(=O)c1ccc2c(c1)C1(CCN(CC3CC3)C1)CN2Cc1ccccc1 (stereo unspecified)	inconclusive: 35.5 µM [inhibitor, partial curve, poor fit]
O=C(NCCc1ccc(Cl)cc1)c1nc(-c2ccc(Cl)cc2)c2ccccn12	active: 25.1 µM
COc1ccc2c(C)c(CC(=O)Nc3nnc(C(C)C)s3)c(=O)oc2c1OC	inconclusive: 22.4 µM [inhibitor, partial curve, poor fit]
CCCCNCc1ccc(-c2ccc(C(=O)O)cc2)o1	inconclusive: 39.8 µM [inhibitor, partial curve, poor fit]
CCc1noc(-c2cn(C3CCN(C(=O)c4ccc(C)cc4C)C3)nn2)n1 (stereo unspecified)	inactive
COCCNC(=O)N1CCN(c2oc(-c3ccco3)nc2C#N)CC1	inconclusive: 25.1 µM [inhibitor, partial curve, poor fit]
CCOC(=O)C1=C(C)N=C2SC=C(CC(=O)NCC3CC3)N2C1c1ccccc1OC (stereo unspecified)	inconclusive: 28.2 µM [inhibitor, single point]
CCc1nnc(SCC(=O)Nc2cccc(C(F)(F)F)c2)c2cc3oc(C)cc3n12	inconclusive: 17.8 µM [inhibitor, partial curve, poor fit]
CCOC(=O)Cc1c(C)nc2c(-c3ccc(Cl)cc3)c(C(F)(F)F)nn2c1C	inconclusive: 2.24 µM [inhibitor, full curve, poor fit]
COc1ccc(/C=C/C(=O)Nc2ccc3nc4c(c(Nc5ccc(OC)c(OC)c5)c3c2)CCCC4)cc1	inconclusive: 17.8 µM [inhibitor, partial curve, poor fit]
CC(=O)Nc1ccc(C2(C(=O)NCc3ccc(C)o3)CCC2)cc1	inactive
COCC(C)n1c(C)cc(C(=O)Cn2cnc3scc(-c4ccc(C)s4)c3c2=O)c1C (stereo unspecified)	inconclusive: 39.8 µM [inhibitor, single point]
